The campaign covered roughly 410,000 compounds. About 6,400 (1.6%) were called active. The shares of active, inactive and inconclusive entries below differ from those in the screen. Calls come from the whole dose curve; as a rule, active = well fitted inhibition curve with a large enough effect; inconclusive = small, poorly fitted or top-dose-only effect; inactive = no such curve, though single readings can be large or run the other way. No potency is given beside an inconclusive call; the fits are too rough.
These compounds were tested against Glucagon-like peptide 1 receptor (Homo sapiens) (UniProt P43220) (assay: qHTS of GLP-1 Receptor Inverse Agonists (Inhibition Mode)). Details: HEK293 GLP-1R CRE-luciferase, luminescence, 24 h, GLP-1R form is constitutively active; activity change, negative = inhibition: at 38.3 µM (top of the series) unless noted.
UniProt P43220, sequence (P43220 whole entry, looked up): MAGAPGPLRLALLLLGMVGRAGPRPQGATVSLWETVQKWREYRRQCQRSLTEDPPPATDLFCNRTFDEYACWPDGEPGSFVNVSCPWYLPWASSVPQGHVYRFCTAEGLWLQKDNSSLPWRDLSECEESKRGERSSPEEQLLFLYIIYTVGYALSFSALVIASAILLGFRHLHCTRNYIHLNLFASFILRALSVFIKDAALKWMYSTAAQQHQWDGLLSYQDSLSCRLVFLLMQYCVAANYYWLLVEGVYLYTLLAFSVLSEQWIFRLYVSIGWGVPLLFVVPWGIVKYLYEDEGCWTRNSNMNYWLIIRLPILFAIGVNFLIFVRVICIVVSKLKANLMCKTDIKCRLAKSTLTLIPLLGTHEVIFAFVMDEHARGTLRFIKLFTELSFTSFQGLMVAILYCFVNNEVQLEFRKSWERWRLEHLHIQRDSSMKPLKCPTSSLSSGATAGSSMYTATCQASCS
Summary of the method: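 GLP-1R inverse agonism mode: basal reporter luminescence in engineered HEK293 cells measured after one day of compound exposure at 37 deg C, with a 12 min room-temperature detection step.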
With `CCN(CC)CC(=O)Nc1sc(C)cc1C(=O)c1ccccc1` the activity change, negative = inhibition was inconclusive: -90.2% [inhibitor].
In the case of `COc1ccc(-c2cc(C(F)(F)F)nc(SCCC(=O)NCc3ccco3)n2)cc1`, the Potency is reported as inconclusive [inhibitor, full curve].
For `O=C(C1CC1)N1c2ccccc2Sc2ccccc21`, the Potency was inconclusive [inhibitor, single point].
With `COc1cc(NC(=S)N2CCN(S(=O)(=O)c3ccc(F)cc3)CC2)cc(OC)c1` the Potency was inconclusive [inhibitor, partial curve, poor fit].
`COc1cc(Nc2c3c(nc4ccccc24)CCC3)cc(OC)c1OC` was tested, and the Potency was inconclusive [inhibitor, full curve].
With `c1ccc(-c2nnc(-c3ccccn3)s2)nc1` the Potency was inconclusive [inhibitor, full curve, poor fit].
In the case of `O=C(O)C1Cc2[nH]cnc2C(c2ccccc2O)N1` (stereo unspecified), the Potency is reported as “inactive”.
In the case of `OC(c1ccccc1)(c1ccccc1)C1CCN(C(=S)NCCc2ccccc2)CC1`, the Potency is reported as inconclusive [inhibitor, single point].
In the case of `O=C(c1ccccc1)C1Oc2ccccc2C2CC(c3cccs3)=NN12` (stereo unspecified), the Potency is reported as inconclusive [inhibitor, partial curve, poor fit].
For `CCCCCCSc1ccc(-c2nc3ccc(C)cn3c2NCCCC)cc1OC`, the Potency was inconclusive [inhibitor, partial curve, poor fit].
In the case of `C/C(=N/NC(=O)c1nnn(-c2nonc2N)c1-c1ccccc1)c1ccc2c(c1)OCO2`, the Potency is reported as inconclusive [inhibitor, single point].
`CCn1c(Cc2ccccc2)nnc1SCC(=O)Nc1ccc2c(c1)OCO2` was tested, and the Potency was inconclusive [inhibitor, single point].
In the case of `CCOc1cccc(C(=O)Nc2ccc3oc(Cc4ccc(Cl)cc4)nc3c2)c1`, the Potency is reported as active: 2.24 µM.
`O=C(c1ccc(Cl)cc1)N1CCc2ccccc21` was tested, and the Potency was inconclusive [inhibitor, single point].
`Cc1cc(C)n(Cc2ccc(C(=O)Nc3ccc(Br)cc3C)o2)n1` was tested, and the Potency was inconclusive [inhibitor, partial curve, poor fit].
In the case of `CCCCCC(=O)NC(NC(=S)Nc1ccc(S(N)(=O)=O)cc1)C(Cl)(Cl)Cl` (stereo unspecified), the Potency is reported as inconclusive [inhibitor, partial curve, poor fit].
In the case of `Cc1cccc(NC(=S)NC(=O)CCc2ccccc2)c1`, the Potency is reported as inconclusive [inhibitor, partial curve, poor fit].
With `Cn1cnnc1Sc1ccc(/C=C/C(=O)c2ccc(O)cc2)cc1[N+](=O)[O-]` the Potency was “inactive”.
For `N#Cc1ccccc1S(=O)(=O)N1CCN(c2nc(-c3ccccc3)nc3ccccc23)CC1`, the Potency was “inactive”.
With `CCOC(=O)C(C#N)C(Cc1ccccc1)c1ccco1` (stereo unspecified) the Potency was inconclusive [inhibitor, single point].
With `Oc1ccc(C[C@@H](CN2CCC[C@@H]2CN2C(=S)NC[C@@H]2Cc2ccccc2)N2C[C@H](Cc3ccccc3)N(CCc3ccccc3)C2=S)cc1` the Potency was inconclusive [inhibitor, partial curve, poor fit].
With `Clc1cccc(Cc2c(-c3ccccc3)nc3ccc(Br)cn23)c1` the Potency was inconclusive [inhibitor, single point].
With `Cc1cccc(C)c1NC(=O)CNC(=O)C(Cc1ccccc1)NC(=O)c1ccccc1` (stereo unspecified) the Potency was inconclusive [inhibitor, single point].
With `COc1ccc(-c2cc(-c3ccc(F)cc3)nc(N3CCN(C)CC3)n2)cc1` the Potency was inconclusive [inhibitor, partial curve, poor fit].
In the case of `O=C(Cc1ccccc1)N1CCN(S(=O)(=O)c2cccc([N+](=O)[O-])c2)CC1`, the Potency is reported as inconclusive [inhibitor, single point].
In the case of `O=S1(=O)c2ccc(Br)cc2N2CCC[C@@H]2CN1Cc1ccc(Cl)cc1`, the Potency is reported as inconclusive [inhibitor, partial curve, poor fit].
In the case of `CC(C)Cn1c(CNC(=O)c2ccccc2)nc2ccccc21`, the Potency is reported as active: 14.1 µM.
`CCOC(=O)N1CCN(C(=O)C[C@@H]2C[C@@]3(C(=O)OC)CCCCC=C3N(Cc3ccc(Cl)cc3Cl)C2=O)CC1` was tested, and the Potency was active: 11.2 µM.
For `CCCCc1ccc(NC(=O)c2ccc3c(c2)CCN3S(=O)(=O)c2ccccc2)cc1`, the Potency was inconclusive [inhibitor, full curve, poor fit].
With `COC(=O)c1ccc(Cn2c(SCC(=O)N(C)c3ccccc3)nc3ccccc32)cc1` the Potency was inconclusive [inhibitor, single point].
In the case of `CCCCOc1ccc(C(=O)NCC(=O)N2CCN(Cc3ccc4c(c3)OCO4)CC2)cc1`, the Potency is reported as inconclusive [inhibitor, partial curve, poor fit].
For `CCOC(=O)c1c(NC(=O)c2c(-c3ccccc3)noc2C)sc(C)c1-c1ccccc1`, the Potency was inconclusive [inhibitor, full curve, poor fit].
`O=[N+]([O-])c1cnc2nc(-c3ccncc3)nn2c1O` was tested, and the Potency was inconclusive [inhibitor, single point].
With `CS(=O)(=O)N1CCN(c2ccccc2NC(=O)Nc2cccc(Cl)c2)CC1` the Potency was inconclusive [inhibitor, partial curve, poor fit].
In the case of `COc1ccc(-n2c(NN)nc3sc4c(c3c2=O)CCCC4)cc1`, the Potency is reported as inconclusive [inhibitor, single point].
In the case of `CC(C)Cn1cc(C(=O)N2CCN(c3cccc(Cl)c3)CC2)c2c3ccccc3n(C)c2c1=O`, the Potency is reported as active: 10 µM.
`CC(C)CC(=O)NC(=S)Nc1ccccc1N1CCCC1` was tested, and the Potency was inconclusive [inhibitor, partial curve, poor fit].
With `Clc1ccc2[nH]cc(-c3nnnn3-c3ccccc3)c2c1` the Potency was inconclusive [inhibitor, partial curve, poor fit].
In the case of `O=C(C[C@H]1C[C@H](C(=O)N2CCCCC2)[C@@]2(CCc3ccccc3)c3[nH]c4cc(-c5ccco5)ccc4c3CCN2C1=O)NCc1ccco1`, the Potency is reported as active: 8.91 µM.
For `Nc1nc2ccccc2n1Cc1ccc(Cl)c(Cl)c1`, the Potency was inconclusive [inhibitor, partial curve, poor fit].
For `CCC(C)Sc1cc(C(F)(F)F)c(C(=O)Nc2ccc(Cl)cc2)cn1` (stereo unspecified), the Potency was inconclusive [inhibitor, partial curve, poor fit].
With `Cc1nc(SCc2ccc(Cl)cc2)c(C#N)c(C)c1Cl` the Potency was “inactive”.
`CCN1CCN(C(=O)c2cc(COc3c(C)cccc3C)on2)CC1` was tested, and the Potency was inconclusive [inhibitor, single point].
With `COc1ccc(OC)c(CNc2sc3c(c2C(=O)Nc2cc(OC)ccc2OC)CCCC3)c1` the Potency was inconclusive [inhibitor, single point].
`CC(C)CN(/C=N/c1sc2c(c1C#N)CCCCC2)CC(C)C` was tested, and the Potency was inconclusive [inhibitor, full curve, poor fit].
With `C=CCn1c(-c2ccccc2)c[nH]c1=S` the Potency was inconclusive [inhibitor, single point].
In the case of `CCCN(CCC)CCNC(=O)C1CCCN(S(=O)(=O)c2cccc3nsnc23)C1` (stereo unspecified), the Potency is reported as “inactive”.
With `COc1ccc(N2CCN(C(=O)CSc3nnc4c(C)cc5c(C)cc(C)cc5n34)CC2)cc1` the Potency was inconclusive [inhibitor, full curve, poor fit].
`CN(C)Cc1c(O)ccc2oc(Cc3ccccc3)cc12` was tested, and the Potency was inconclusive [inhibitor, partial curve, poor fit].
In the case of `COc1cccc(NC(=S)NN2C(C)CCCC2C)c1` (stereo unspecified), the Potency is reported as inconclusive [inhibitor, single point].
With `Clc1ccccc1N=C1NN=C(c2cccs2)CS1` the Potency was inconclusive [inhibitor, single point].
With `Cc1ccc(C2C3=C(CCCC3=O)Nc3[nH]c(=S)[nH]c(=O)c32)cc1` (stereo unspecified) the Potency was “inactive”.
In the case of `C=C(C)c1cccc(C(C)(C)NC(=O)Nc2cc(C)ccn2)c1`, the Potency is reported as inconclusive [inhibitor, partial curve, poor fit].
For `CCC1=C(c2ccc(C)cc2)S(=O)(=O)N=C1N1CCC(C(=O)NCc2ccccc2Cl)CC1`, the Potency was inconclusive [inhibitor, single point].
`COc1ccc(OC)c(S(=O)(=O)Nc2ccc(Oc3ccccc3)cc2)c1` was tested, and the Potency was inconclusive [inhibitor, single point].
For `CC(C)(C)c1ccc(CC(=O)N2CCC2(C)C(=O)Nc2cccc3c2CCCC3)cc1` (stereo unspecified), the Potency was inconclusive [inhibitor, single point].
With `COc1ccc(-c2csc3nc(-c4ccccc4F)oc(=O)c23)cc1OC` the Potency was inconclusive [inhibitor, single point].
`C/C(=N/NS(=O)(=O)c1ccc(Br)cc1)c1cccc(NC(=O)C2CC2)c1` was tested, and the Potency was inconclusive [inhibitor, partial curve, poor fit].
With `CCCOc1ccc(NC(=O)C2CC(=O)N/C(=N/N=C(C)/C=C/c3ccc(N(C)C)cc3)S2)cc1` (stereo unspecified) the Potency was inconclusive [inhibitor, single point].
For `CCOc1cc(CNCCCN2CCOCC2)cc(Cl)c1OCC(=O)NC(C)(C)C`, the Potency was inconclusive [inhibitor, partial curve, poor fit].
`Cc1ccc(C(=O)N/C(=C/C=C/c2ccccc2)C(=O)NCc2ccco2)cc1` was tested, and the Potency was inconclusive [inhibitor, partial curve, poor fit].

From PubChem BioAssay AID624417 (National Center for Advancing Translational Sciences (NCATS), 2012)
% is set by controls: 0 for no effect and ±100 for the full control effect; potency is the fitted concentration of half-maximal effect; tags give direction and shape of the fitted curve.
Note: nearly all actives have a fitted effect of over 55% in size.
